Experimental data: the supplement of paper PMC10338343
± gives the standard deviation. Whole data set: some 3,700 sequences, median “pre-steady-state target cleavage rate” near 0.02, cut for the highest 2% near 0.23. The entries are a selection whose mix differs from that of the whole data set.

Each sequence was assayed on MILI (PIWIL2) piRISC loaded with Kctd7 piRNA (26 nt) (assay: pre-steady-state target cleavage rate (min^-1); MIWI and MILI are mouse PIWI proteins and EfPiwi is from a freshwater sponge; tags in brackets are library labels; higher = faster piRNA-guided slicing of the target). Conditions: guide: Kctd7 piRNA 5'p-UGUUAAUCUCUCAGAGAAGGUGACAG; auxiliary factor: 500 nM mouse GTSF1.
Outline: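 In this Cleave-'n-Seq assay, uncleaved targets were sequenced and normalised to depth and to weakly complementary targets. They came from a transcribed, DNA-blocked target RNA library […] mixed with 1 nM active affinity-purified piRISC carrying one synthetic guide, with or without 500 nM GTSF1 partner protein, in HEPES–potassium acetate buffer at 33 °C for 0–8 or 0–960 min. After three trials were pooled and k3 was capped at 0.0001 min^-1, the pre-steady-state cleavage rate was obtained from a burst-and-steady-state fit.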
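Also: 1 nM active piRISC with 0.1 nM target library at 33 °C single turnover.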

First: UAGUCUGUCUCCUUCUCUGAGAGAUUUACA
Second: UAGUGAGUCAUCCUUCUCUGAGAGAUUAACA
The “pre-steady-state target cleavage rate” value of the first is higher: 0.101 ± 0.016 for the first, 0.0487 ± 0.0084 for the second.

Compared with UAGUGUCAGACCUUCUCUGAGAGAUUAAGA, UAGUGACACUCCUUCUCUGAGAGAUUAACA is higher in “pre-steady-state target cleavage rate” value: 0.0369 ± 0.01 for the first, 0.126 ± 0.0098 for the second.

Going from UAGUGAGACACGUUCUCUGAGAGAUUAACA to UAGUCUGUCUCCUUCUCUGAGACAUUAACA, the “pre-steady-state target cleavage rate” value falls from 0.117 ± 0.0093 to 0.0235 ± 0.0056.

First: UAGUGUGUCAGCUUCUCUGACAGAUUAACA
Second: UAGUGACUCACCUUCUCUGACAGAUUAUCA
The “pre-steady-state target cleavage rate” value of the first is higher: 0.0353 ± 0.0088 for the first, 0.018 ± 0.0058 for the second.

Going from UAGUGUGUCACCUUCACUGAGAGAAUAACA to UAGUGUGACACCAUCUCUGAGAGAUUAACA, the “pre-steady-state target cleavage rate” value rises from 0.0146 ± 0.0066 to 0.137 ± 0.011.

Compared with UAGUGACAGUGCUUCUCUGAGAGAGUAACA, UAGUGUGUCACCUUCUCUGAGAGAUUAAGCA is higher in “pre-steady-state target cleavage rate” value: 0.00647 ± 0.0028 for the first, 0.148 ± 0.035 for the second.

Compared with UAGUCUGUGACCUUCUGUGAGAGAUUAACA, UAGUGACACACCUUCUCUGAGAGAUAUAACA is higher in “pre-steady-state target cleavage rate” value: 0.109 ± 0.0078 for the first, 0.155 ± 0.021 for the second.

Going from UAGUGACACACCUUGUCUGUGAGAUUAACA to UAGUGAGUCACCUUCUGACAGAGAUUAACA, the “pre-steady-state target cleavage rate” value falls from 0.0374 ± 0.0046 to 0.0161 ± 0.0054.

Compared with UAGUGAGUCACCUUUUCUGAGAGAUUAACA, UAGUGACACAGCUUCUCUCAGAGAUUAACA is lower in “pre-steady-state target cleavage rate” value: 0.175 ± 0.015 for the first, 0.0303 ± 0.0081 for the second.

Going from UAGUGACAGUCGUUCUCUGAGAGAUUUACA to UAGUGACAGUGGAAGUCUGAGACAUUAUCA, the “pre-steady-state target cleavage rate” value falls from 0.00947 ± 0.0039 to under 0.0001.

Compared with UAGUGACACACCUUCUCUGAGAUGAUUAACA, UAGUGAGUCAGGUUCUCUGAGAGAUUAUGA is lower in “pre-steady-state target cleavage rate” value: 0.092 ± 0.0095 for the first, 0.00754 ± 0.0035 for the second.

Compared with UAGUGUGUCAGCUUCUCUGAGACAUUAACA, UAGUCUGGUCACCUUCUCUGAGAGAUUAACA is higher in “pre-steady-state target cleavage rate” value: 0.0192 ± 0.0061 for the first, 0.233 ± 0.015 for the second.

First: UAGUCUGUGUCCUUCUCUGAGAGAUUAACA
Second: UAGUGUGUUCACCUUCUCUGAGAGAUUAACA
The “pre-steady-state target cleavage rate” value of the first is lower: 0.114 ± 0.0092 for the first, 0.176 ± 0.013 for the second.

UAGUGUGUCACCUACUCUGAGAGAAUAACA and UAGUGUCUCACCUUCUGUGAGAGAUUAACA are within error of each other in “pre-steady-state target cleavage rate” value: 0.0702 ± 0.017 for the first, 0.0781 ± 0.011 for the second.

First: UAGUGACAGUCCUUCUCAGAGAGUUUAACA
Second: UAGUGUGUCUCCUUCUCUGAGAGAUUAACA
The “pre-steady-state target cleavage rate” value of the first is lower: 0.00548 ± 0.0033 for the first, 0.16 ± 0.023 for the second.

First: UAGUGAGUCUCCAUCUCUGAGAGAUUAACA
Second: UAGUCUGUCACCUUCUCUGAGAGUUUAUCA
The “pre-steady-state target cleavage rate” value of the first is lower: 0.086 ± 0.013 for the first, 0.149 ± 0.046 for the second.

Compared with UAGUCGUGUCACCUUCUCUGAGAGAUUAACA, UAGUCUGUCACCUUCUCUGAGAGAGUAACA is higher in “pre-steady-state target cleavage rate” value: 0.199 ± 0.01 for the first, 0.245 ± 0.033 for the second.

UAGUGACAGACCUUGUCUGAGACAUUAACA and UAGUGUGACACCUUCUCUCAGAGAUUAACA are within error of each other in “pre-steady-state target cleavage rate” value: 0.0532 ± 0.015 for the first, 0.0451 ± 0.011 for the second.

Going from UAGUGACUCACCUUUUCUGAGAGAUUAACA to UAGUGAGUCACCUUCUCUGUGAGAUUUACA, the “pre-steady-state target cleavage rate” value falls from 0.179 ± 0.013 to 0.0421 ± 0.0095.

Compared with UAGUGAGAGACCUUCUCUGAGAGAUUAAGA, UAGUGACAGUGGUUCUCUGAGAGAUUGAACA is lower in “pre-steady-state target cleavage rate” value: 0.0627 ± 0.022 for the first, under 0.0001 for the second.

First: UAGUGAGUCACCUUCAGUGAGAGAUUAAGA
Second: UAGUGACUCACCUUGUCUGAGACAUUAACA
The “pre-steady-state target cleavage rate” value of the first is lower: 0.0199 ± 0.0069 for the first, 0.0647 ± 0.011 for the second.

Compared with UAGUGACACUCCUUCUCUGAGAGAAUAACA, UAGUGACAGUGCUUCUCUGAGAUAUUAACA is lower in “pre-steady-state target cleavage rate” value: 0.0169 ± 0.0062 for the first, 0.00529 ± 0.0022 for the second.

UAGUGACAGACCUUCUCAGAGAGAUAAACA and UAGUGACAGUGCUAUCUCUGAGAGAUUAACA are within error of each other in “pre-steady-state target cleavage rate” value: 0.0127 ± 0.0055 for the first, 0.0173 ± 0.004 for the second.

First: UAGUGACUCACCUUCUGUGAGAGAUUAAGA
Second: UAGUCUGUCACAUUCUCUGAGAGAUUAACA
The “pre-steady-state target cleavage rate” value of the first is lower: 0.0167 ± 0.0069 for the first, 0.153 ± 0.012 for the second.

UAGUGUGUCAGCUUCUCUGAGAGUUUAACA and UAGUGAGGCACCUUCUCUGAGAGAUUAACA are within error of each other in “pre-steady-state target cleavage rate” value: 0.161 ± 0.036 for the first, 0.205 ± 0.042 for the second.

Compared with UAGUGAGACACCUUCACUGAGAGAUUAACA, UAGUGACUCACCUUCUCAGUGAGAUUAACA is lower in “pre-steady-state target cleavage rate” value: 0.113 ± 0.0086 for the first, 0.0126 ± 0.0033 for the second.

First: UAGUGACUCACCCUUCUCUGAGAGAUUAACA
Second: UAGUGACAGUCCUUCUCUGAGAGAUGAACA
The “pre-steady-state target cleavage rate” value of the first is higher: 0.062 ± 0.011 for the first, 0.00504 ± 0.0029 for the second.

Compared with UAGUGACUCACCUUCUCUGAGAGAUUAGACA, UAGUGACAGAGCAUCUCUGAGAGAUUAACA is lower in “pre-steady-state target cleavage rate” value: 0.129 ± 0.046 for the first, 0.0069 ± 0.0024 for the second.

First: UAGUGACACACCUUGUCUGACAGAUUAACA
Second: UAGUGUGUCACCUUCUCUGAGAGAUUAACA [g2:g25:cont:t1A]
The “pre-steady-state target cleavage rate” value of the first is lower: 0.115 ± 0.031 for the first, 0.216 ± 0.015 for the second.

Going from UAGUGACUCACCUUUCUGAGAGAUUAACA to UAGUGACAGUCGUUGUCUGAGAGAUUAACA, the “pre-steady-state target cleavage rate” value falls from 0.0361 ± 0.013 to 0.0115 ± 0.0021.

Compared with UAGUGACACACGUUCUCUGAGAGAUUAUCA, UAGUGACACACCUUCUCUGUGAGAUUUUGA is lower in “pre-steady-state target cleavage rate” value: 0.0622 ± 0.014 for the first, 0.0136 ± 0.0053 for the second.

First: UAGUCUGUCCCUUCUCUGAGAGAUUAACA
Second: UAGUGACUCACCUAGACUGAGAGAUUAACA
The “pre-steady-state target cleavage rate” value of the first is higher: 0.198 ± 0.018 for the first, 0.0192 ± 0.0063 for the second.

UAGUGACAGUGGAAGAGAGAGAGAUGAACA and UAGUGACAGUGCUUCUCUGAGAGUAAAACA cannot be ordered by “pre-steady-state target cleavage rate” value: under 0.0001 for the first, under 0.0001 for the second.

Compared with UAGUGACAGUGGAUUUCUGAGAGAUUAACA, UAGUCUGUCACCUUCACUGAGAGAUUUACA is higher in “pre-steady-state target cleavage rate” value: 0.00273 ± 0.0019 for the first, 0.185 ± 0.045 for the second.

Compared with UAGUGAGUGACCAUCUCUGAGAGAUUAACA, UAGUGUGUGACCUUCUCUCAGAGAUUAACA is lower in “pre-steady-state target cleavage rate” value: 0.0822 ± 0.011 for the first, 0.0403 ± 0.011 for the second.

Going from UAGUCUGUCACCUACUCUCAGAGAUUAACA to UAGUCUGUCACCUUCUCUGAGAGCUUAACA, the “pre-steady-state target cleavage rate” value rises from 0.0458 ± 0.0055 to 0.148 ± 0.016.
